# Test results reported in the BET-seq Pho4 binding data (Le et al. 2018).
# The other results are listed elsewhere or left out. The energies were worked out here from pooled read counts, against the library average; single values are noisy.
# Target: T1, Pho4 (S. cerevisiae) (UniProt P07270)
# T1 sequence: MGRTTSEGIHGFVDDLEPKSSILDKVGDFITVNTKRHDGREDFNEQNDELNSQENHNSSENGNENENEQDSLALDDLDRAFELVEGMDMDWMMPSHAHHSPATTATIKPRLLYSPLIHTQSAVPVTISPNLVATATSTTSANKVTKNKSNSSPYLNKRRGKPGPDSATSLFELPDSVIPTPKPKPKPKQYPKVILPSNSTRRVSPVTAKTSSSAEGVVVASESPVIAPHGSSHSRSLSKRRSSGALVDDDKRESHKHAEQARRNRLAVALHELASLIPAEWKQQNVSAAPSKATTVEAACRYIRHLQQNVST
# Assay: relative binding free energy (BET-seq); higher = weaker binding
# Details: reference: library average
row,Sequence,relative binding free energy [kcal/mol]
1,TTGTCCACGTGTGGGT,0.12
2,TGGTCCACGTGGGCGG,-0.07
3,AGTTACACGTGTGTTC,0
4,AGTCACACGTGTTGTG,-0.06
5,TGTTTCACGTGGCGTT,0.23
6,TATTTCACGTGTTCGT,0.27
7,GTTTGCACGTGCGGCC,0.15
8,GGACTCACGTGGGTGT,0.11
9,AGTTACACGTGTGCGT,-0.06
10,GTGGTCACGTGTAATA,0.25
11,TAGATCACGTGTTATC,0.3
12,TTGAGCACGTGTGCTG,-0.1
13,AATTTCACGTGGATGC,0.31
14,GCGGTCACGTGTGTTA,0.13
15,AATGTCACGTGGGGGC,-0.05
16,GTTTGCACGTGGCCTG,-0.13
17,AATGACACGTGGTATA,-0.06
18,CAAAGCACGTGGGGGT,-0.16
19,AGTTCCACGTGTGTAG,0.11
20,TAATGCACGTGTTTCT,-0.04
21,AGTGGCACGTGTGTTC,0.01

row,Sequence,relative binding free energy [kcal/mol]
1,TTGGACACGTGGCAAG,-0.07
2,TTCTGCACGTGGGGTT,-0.16
3,GGGCGCACGTGTGTAT,0.01
4,TAGGACACGTGGTCCG,0.06
5,GCTGGCACGTGTTTAT,-0.07
6,TTGTGCACGTGGGGCC,-0.17
7,CTATGCACGTGCGTTG,-0.07
8,CGGTTCACGTGGCGTA,0.12
9,TATGGCACGTGGGCTA,-0.24
10,GGGTACACGTGTTTCG,0.15
11,AAGTGCACGTGTGAGT,0
12,TGGCGCACGTGAGTGC,0.24
13,GGTGCCACGTGTGAGT,0.04
14,TGCATCACGTGAAGGT,0.42
15,GGAGCCACGTGCGTGT,-0.06
16,ATTATCACGTGCATGG,0.08
17,GGGGTCACGTGATCTT,0.2
18,AAGGCCACGTGTCGGA,0.16
19,GCGGGCACGTGTAGTG,0
20,GTGATCACGTGAATTT,0.49
21,GGTGACACGTGGGAGG,-0.02

row,Sequence,relative binding free energy [kcal/mol]
1,ATTGGCACGTGAAGTT,0.22
2,GGCATCACGTGTGCGT,0.21
3,GTGGTCACGTGAGTTG,0.34
4,CGGTACACGTGTGATT,0.15
5,TGTTTCACGTGTATAA,0.22
6,GGTCTCACGTGGTTTA,0.23
7,TTGCCCACGTGGGGTG,-0.21
8,TCTGGCACGTGTGTAT,-0.01
9,TGCCGCACGTGTGAGG,-0.08
10,TTTGTCACGTGGGGCT,-0.01
11,CTGGTCACGTGTTTAT,0
12,GGGTCCACGTGGGTCG,-0.2
13,GCGAGCACGTGCGGGG,-0.24
14,TGGTACACGTGCTAGT,-0.03
15,TGTTGCACGTGGGGTG,-0.13
16,GGAAGCACGTGGGTAA,-0.34
17,TAGGGCACGTGGAACT,-0.07
18,GAGTGCACGTGGTATT,-0.03
19,GTTGTCACGTGTGGAT,0.2
20,GTTGTCACGTGCTTCT,0.14
21,TGTTTCACGTGCGGGT,0.28
